# Experimental data as given in ChEMBL document CHEMBL4888484, “Replenishing the malaria drug discovery pipeline: Screening and hit evaluation of the MMV Hit Generation Library 1 (HGL1) against asexual blood stage Plasmodium falciparum ,using a nano luciferase reporter read-out” (2022).
# The campaign covered roughly 4,800 compounds. About 410 (8.5%) showed an effect of 50% or more. The list shows a part of the results.
# System: Plasmodium falciparum
# Test: Confirmatory screen in NF54 pLDH assay, in single point, at 2uM, 72h
# Assay type: functional, Erythrocyte
# Conditions: timepoint 72 hour
row,SMILES,% Inhibition
1,COc1ccc(-c2nc(-c3ccc(=O)n(C)c3)no2)c(OC)c1,9%
2,CCCN1CCN(C(=O)CN2CCCC2=O)c2ccc(F)cc21,-1%
3,C#CCN(C(=O)c1ccncc1CC)c1nccs1,-9%
4,COc1ccc(CC(=O)NCCOCCO)cc1,8%
5,O=C(CNC1=NC(=O)C(c2ccccc2)(c2ccccc2)N1)NCc1ccc(F)cc1,4%
6,CC[C@@H](CO)NC(=O)Nc1ccc(F)cc1,8%
7,CC(=O)Nc1ccc(NC(=O)CCC(C)C)cc1,-6%
8,CN1CCN([C@H]2CCN(c3ccnc4ccc(Cl)cc34)C[C@H]2CCCO)CC1,60%
9,Cc1ccc(CNC(=O)c2cc3cc(OCc4ccccc4)ccc3n2Cc2ccccc2)o1,9%
10,CCCn1c(C)ccc(-c2noc(CCCC(=O)N3CCOCC3)n2)c1=O,6%
11,O=C(Nc1ncc(CCO)s1)[C@@H]1CCCN1C(=O)Cc1cccs1,10%
12,CC(C)(C)OC(=O)N1CCC(c2nc(-c3ccc(F)c(C(F)(F)F)c3)c[nH]2)CC1,-1%
13,O=C(Nc1ccn(Cc2cccnc2)n1)c1ccc(-c2ccccc2F)o1,6%
14,CCS(=O)(=O)Nc1ccc(S(=O)(=O)NC[C@@H](c2ccccc2OC)N2CCCCC2)c(C)c1,7%
15,CCN1CCC(NC(=O)CCc2c[nH]c3ccccc23)CC1,7%
16,COc1ccc2nc(C(F)(F)F)nc(N3CCNC(=O)CCN(C(=O)C(F)=C4CCCC4)CC3)c2c1,14%
17,CCn1c(C)cc(C(=O)O[C@@H](C)C(=O)Nc2ncccn2)c1C,-1%
18,Cc1cc(C(=O)Nc2cncc(Br)c2O)no1,5%
19,COc1ccc(NC(=O)Cn2cnc3nc(N4CCCCC4)ncc3c2=O)c(OC)c1,13%
20,CCOc1ccccc1NC(=O)[C@H]1CCCN(c2nc3cccnc3n(Cc3ccc(C)cc3)c2=O)C1,-1%
21,CN(C(=O)c1ccc(NC(=O)c2cnsn2)cc1Cl)C1CCCCC1,-9%
22,CCCc1cc(Nc2ccc(C(=O)NC[C@H]3CCCO3)cc2)n2nc(-c3cccnc3)nc2n1,15%

row,SMILES,% Inhibition
1,CCn1nc(C)cc1NS(=O)(=O)c1ccc2c(c1)C(C)(C)C(=O)N2C,-10%
2,COc1ccc(CNC(=O)c2sc(Nc3ccc(C)cc3C)nc2C)c(OC)c1,-2%
3,CCn1cc(Cl)c(-c2nnc(-c3cccc(C(F)(F)F)c3)o2)n1,6%
4,CCn1cc(C(=O)Nc2n[nH]c3ccc(C(F)(F)F)cc23)cn1,-4%
5,O=C1CN(C(c2ccccc2)(c2ccccc2)c2ccccc2)CO1,-7%
6,COC(=O)c1nc2ccccc2c(-c2cn(-c3ccc(C(F)(F)F)cc3)nn2)c1C(=O)OC,3%
7,N[C@H]1C[C@H](c2cc(NCCCc3cccnc3)nc(C3CC3)n2)C1,77%
8,Cc1cc(=O)c(C(=O)Nc2cccc(Cl)c2O)c[nH]1,6%
9,CCn1nccc1[C@@H]1CC(c2cccc(O)c2)=NN1c1ccc(S(N)(=O)=O)cc1,12%
10,Cc1cc(O)n2nc(N(C)C(=O)C(=O)N3CCN(C)CC3)c(S(=O)(=O)c3ccccc3)c2n1,21%
11,Clc1cccc(CNCCCNc2ccncc2)c1Cl,95%
12,CCCOc1ccc(CNC(=O)CCn2ccn3nc(-c4ccc(C)c(C)c4)cc3c2=O)cc1,5%
13,CC(=O)N(CC[C@]1(Cc2ccccc2Cl)CCOC(C)(C)C1)Cc1ccc(F)cc1,-10%
14,N#CC1(O)C(C2COC3(CCCCC3)O2)OC2OC3(CCCCC3)OC21 (stereo not given),10%
15,Cc1[nH]c(=O)[nH]c(=O)c1NS(C)(=O)=O,11%
16,COc1ccc(-c2cc3n(n2)C[C@@](C)(C(=O)NCc2ccccc2)N(Cc2ccc4c(c2)OCO4)C3=O)cc1,39%
17,c1ccc(CCc2nnc3n2CCOC3)cc1,3%
18,O=C(C[C@H]1CCN(C(=O)Nc2ccc3c(c2)OCCO3)C1)NCc1ccncc1,7%
19,CCC[C@H]1C(=O)NCCN1C(=O)c1cnn(CC2CCOCC2)c1C,11%
20,CC(NC(=O)C1CCC1)C(=O)Nc1ccn(C(C)c2ccccc2)n1 (stereo not given),-6%
21,O=C(c1cccc(-n2cccn2)n1)N1CCCCCCC1,-8%
22,Cc1ccc2cnn(CCCNC(=O)c3ccco3)c2c1,-1%

row,SMILES,% Inhibition
1,CCCN1C(=O)c2ccccc2N2C(=O)CC[C@@]12C(=O)Nc1ccc(OC)cc1,92%
2,Cc1noc(C)c1CC(=O)O[C@@H](C)C(=O)Nc1ccc(F)cc1,5%
3,CCn1nc(-n2cnnc2)c(NC(=O)c2cc(Br)ccc2OC)c1C,11%
4,CS(=O)(=O)NCCn1nc(-c2cnccn2)cc1C1CC1,7%
5,NC(=O)C(NC(=O)c1cccc(Cl)c1)C(N)=O,85%
6,CC(CC1OCC(C[N+]2(Cc3ccccc3)CCCCC2)O1)CC(C)(C)C (stereo not given),56%
7,O=C(NOC1CCCCO1)NC1CCOC1c1ccc(Cl)cc1 (stereo not given),11%
8,COc1cccc(C(=O)N2CCN(c3nnc4ccc(C(F)(F)F)cn34)CC2)c1,10%
9,Nc1ncncc1C(=O)NCCc1c[nH]c2ccc(F)cc12,6%
10,CC(C)Cn1ncnc1COC(=O)c1cccnc1,10%
11,COc1cccc(C(=O)N2CCC[C@@]3(C2)Nc2cccnc2N=C3NCc2ccccc2)c1,-10%
12,COc1cc2c(cc1-c1cccnc1)CCC(=O)N2C,-22%
13,CCc1ccc(CNC(=O)C2(N3CCOCC3)CCC2)s1,-8%
14,Cc1nn(Cn2nc(-c3ccc(F)cc3)c(Br)c2-c2ccc(F)cc2)c(C)c1Cl,6%
15,O=S(=O)(c1cccc(F)c1)c1cnc2c(F)cccc2c1-c1cccc(F)c1,-3%
16,CC1(C)CN(C(=O)c2cn[nH]c(=O)c2)C(C)(C)CN1Cc1ccccc1,10%
17,Cc1nonc1NC(=O)CCCC1CCCC1,8%
18,CC(C)(NCc1ccncc1Cl)c1ccc2c(c1)OCO2,-5%
19,CC1(C)CC(=O)C2(Cc3cc(C(F)(F)F)ccc3N3CCCC[C@H]32)C(=O)C1,9%
20,Cc1cc(C)c(C(=O)O)cc1NC(=O)c1oc(C2CC2)nc1C,-8%
21,O=C(Nc1nncs1)c1cccc(C(=O)Nc2nncs2)n1,64%
